The text below walks through data of the BET-seq Pho4 binding data (Le et al. 2018).

This is one part of the list. The energies were worked out here from pooled read counts, against the library average; single values are noisy.

The assay addresses T1, Pho4 (S. cerevisiae) (UniProt P07270).
T1 sequence: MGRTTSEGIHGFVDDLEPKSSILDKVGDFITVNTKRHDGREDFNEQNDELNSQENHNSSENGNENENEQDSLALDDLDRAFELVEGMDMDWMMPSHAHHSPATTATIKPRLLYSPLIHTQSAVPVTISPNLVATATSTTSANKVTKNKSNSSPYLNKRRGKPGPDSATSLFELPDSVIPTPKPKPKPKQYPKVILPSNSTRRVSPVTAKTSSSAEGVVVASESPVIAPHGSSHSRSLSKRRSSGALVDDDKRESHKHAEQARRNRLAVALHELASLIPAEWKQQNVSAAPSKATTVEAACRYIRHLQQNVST
As to the kind of experiment: relative binding free energy (BET-seq); higher = weaker binding. To be noted: reference: library average.
Take AGCGTCACGTGGTCTT: the “relative binding free energy” value was -0.03 kcal/mol.

With TGTTGCACGTGTTCGG, the “relative binding free energy” value is -0.11 kcal/mol.

On to TATGTCACGTGTGTGG, for which the “relative binding free energy” value was 0.07 kcal/mol.

Consider GATTGCACGTGTCAGG, for which the “relative binding free energy” value came to 0.11 kcal/mol.

As to TATCACACGTGTTGTA, the “relative binding free energy” value worked out at 0.03 kcal/mol.

As to TTGGCCACGTGACGGT, the “relative binding free energy” value is 0.1 kcal/mol.

TCGTTCACGTGGGATA: the “relative binding free energy” value was 0.13 kcal/mol.

TCAGGCACGTGTTTAT: the “relative binding free energy” value was -0.14 kcal/mol.

In the case of TTAGTCACGTGTTCCG, the “relative binding free energy” value came to 0.12 kcal/mol.

With GTTGTCACGTGATCTG, the “relative binding free energy” value was determined as 0.27 kcal/mol.

Take CGGTGCACGTGGGCCT: the “relative binding free energy” value is -0.12 kcal/mol.

Turning to AATATCACGTGTGGGT, the “relative binding free energy” value is 0.05 kcal/mol.

Regarding AGGGGCACGTGCGGCA, the “relative binding free energy” value was -0.21 kcal/mol.

Consider CGGTTCACGTGATGTC, for which the “relative binding free energy” value stood at 0.41 kcal/mol.

For the sequence AGTTTCACGTGTATCG, the “relative binding free energy” value was found to be 0.23 kcal/mol.

In the case of AGCAGCACGTGGTGGA, the “relative binding free energy” value was -0.08 kcal/mol.

With AGTTACACGTGTCATG, the “relative binding free energy” value amounted to 0.16 kcal/mol.

As for GGGCTCACGTGATTTG, the “relative binding free energy” value came to 0.34 kcal/mol.

In the case of TTTTTCACGTGCATGA, the “relative binding free energy” value is 0.27 kcal/mol.

In the case of TTGAACACGTGAATTT, the “relative binding free energy” value came to 0.35 kcal/mol.

For the sequence TGTTGCACGTGTATCG, the “relative binding free energy” value amounted to 0 kcal/mol.

Turning to GGGTTCACGTGACATG, the “relative binding free energy” value amounted to 0.29 kcal/mol.

As for GCTGGCACGTGGAAGG, the “relative binding free energy” value came out at 0.02 kcal/mol.

As for TGTAGCACGTGGTTCG, the “relative binding free energy” value was -0.15 kcal/mol.

Consider CAATTCACGTGTGGCG, for which the “relative binding free energy” value amounted to 0.37 kcal/mol.

As to CGGTGCACGTGGGAAT, the “relative binding free energy” value was -0.01 kcal/mol.

With ATTGGCACGTGTTACG, the “relative binding free energy” value is -0.12 kcal/mol.

Consider TGTGGCACGTGGTACT, for which the “relative binding free energy” value is -0.28 kcal/mol.

As for GTGTGCACGTGTTTTT, the “relative binding free energy” value was found to be 0.09 kcal/mol.

With GGAAGCACGTGTGTGC, the “relative binding free energy” value is -0.05 kcal/mol.

For ATAAGCACGTGATGGT, the “relative binding free energy” value was -0.01 kcal/mol.

Regarding GATTTCACGTGTGGCG, the “relative binding free energy” value came out at 0.3 kcal/mol.

Consider ATTAACACGTGTTCTG, for which the “relative binding free energy” value is -0.08 kcal/mol.

Take GGTTTCACGTGGTGCT: the “relative binding free energy” value was 0.25 kcal/mol.

As to CGTTTCACGTGTTCGA, the “relative binding free energy” value is 0.21 kcal/mol.

On to TTTAACACGTGGAGAG, for which the “relative binding free energy” value is 0.03 kcal/mol.

Regarding TTAAGCACGTGATCGT, the “relative binding free energy” value is -0.08 kcal/mol.

On to TGTGACACGTGAAGAT, for which the “relative binding free energy” value was found to be 0.36 kcal/mol.

In the case of GTATACACGTGATAGG, the “relative binding free energy” value was found to be 0.16 kcal/mol.

Take ATTTTCACGTGTTTTT: the “relative binding free energy” value stood at 0.23 kcal/mol.

As to CAGTGCACGTGATATG, the “relative binding free energy” value worked out at 0.18 kcal/mol.

As to ATACGCACGTGTGTGG, the “relative binding free energy” value is -0.17 kcal/mol.

In the case of GCAGGCACGTGTGAGA, the “relative binding free energy” value was found to be 0.05 kcal/mol.

As to GTATGCACGTGGTCGG, the “relative binding free energy” value is -0.1 kcal/mol.

As to GTTTTCACGTGGACGA, the “relative binding free energy” value was 0.39 kcal/mol.

With AGGGGCACGTGATGGC, the “relative binding free energy” value is -0.02 kcal/mol.

For GGTAACACGTGTTAAT, the “relative binding free energy” value was 0.06 kcal/mol.

As for GTCTGCACGTGGTAGT, the “relative binding free energy” value was determined as 0.14 kcal/mol.

Consider AAGGTCACGTGGCAGT, for which the “relative binding free energy” value is -0.07 kcal/mol.

Regarding TGATACACGTGGGAGA, the “relative binding free energy” value amounted to 0.04 kcal/mol.

In the case of GGGCTCACGTGTCGGT, the “relative binding free energy” value is 0.23 kcal/mol.

With GAAGTCACGTGGGTGT, the “relative binding free energy” value was -0.01 kcal/mol.

Regarding AATAACACGTGTAAGT, the “relative binding free energy” value was 0.12 kcal/mol.

Turning to TATATCACGTGGATTG, the “relative binding free energy” value came out at 0.14 kcal/mol.

For the sequence ATGTGCACGTGTACGT, the “relative binding free energy” value was -0.03 kcal/mol.

For the sequence CATGACACGTGTTGTT, the “relative binding free energy” value is 0.1 kcal/mol.

On to GGGAGCACGTGGGAAG, for which the “relative binding free energy” value came to 0.02 kcal/mol.

With GAGCTCACGTGGTGTA, the “relative binding free energy” value was determined as 0.23 kcal/mol.

Turning to ATCATCACGTGGTGGT, the “relative binding free energy” value was 0.03 kcal/mol.

For the sequence CTGGCCACGTGGAGGT, the “relative binding free energy” value was -0.06 kcal/mol.

With TAGTTCACGTGCCGTT, the “relative binding free energy” value was 0.36 kcal/mol.

As for TGGTCCACGTGGGATA, the “relative binding free energy” value is -0.07 kcal/mol.

For TTGACCACGTGCAGGG, the “relative binding free energy” value is -0.02 kcal/mol.

As for TTGCTCACGTGTTGAT, the “relative binding free energy” value is 0.17 kcal/mol.

For the sequence GTGAGCACGTGGTTAT, the “relative binding free energy” value was -0.12 kcal/mol.

Regarding CGGGCCACGTGGGAGG, the “relative binding free energy” value was -0.25 kcal/mol.

Consider TAAGGCACGTGCAGTT, for which the “relative binding free energy” value is -0.15 kcal/mol.

Consider GTTGTCACGTGTAGAC, for which the “relative binding free energy” value was 0.11 kcal/mol.

GCTTACACGTGTATTA: the “relative binding free energy” value came out at 0.35 kcal/mol.

On to TCAATCACGTGGTGAG, for which the “relative binding free energy” value stood at 0.24 kcal/mol.

Consider CTGGGCACGTGGCATG, for which the “relative binding free energy” value is -0.26 kcal/mol.

For the sequence CACGGCACGTGGAGGG, the “relative binding free energy” value was -0.17 kcal/mol.

As to TTTCTCACGTGTATGT, the “relative binding free energy” value worked out at 0.24 kcal/mol.

For GTGGCCACGTGGGGAG, the “relative binding free energy” value was -0.06 kcal/mol.

Turning to CGGGTCACGTGAGTAA, the “relative binding free energy” value was 0.39 kcal/mol.

Take GGATCCACGTGGGAGT: the “relative binding free energy” value was -0.04 kcal/mol.

Turning to GTTGGCACGTGTTTAA, the “relative binding free energy” value is -0.07 kcal/mol.

Take AAAGACACGTGTGGGA: the “relative binding free energy” value amounted to 0.09 kcal/mol.

Take GGGGCCACGTGGGATG: the “relative binding free energy” value came to 0 kcal/mol.

Consider CGTAACACGTGGCGGG, for which the “relative binding free energy” value was -0.06 kcal/mol.

With GTTGTCACGTGTTGCA, the “relative binding free energy” value worked out at 0.31 kcal/mol.

Regarding TGTTTCACGTGGAGGC, the “relative binding free energy” value came to 0.32 kcal/mol.

As for GGCGTCACGTGAGGAT, the “relative binding free energy” value stood at 0.34 kcal/mol.

Consider CAAGGCACGTGGGTGA, for which the “relative binding free energy” value is -0.16 kcal/mol.

As for GTATTCACGTGGTACT, the “relative binding free energy” value is 0.15 kcal/mol.

Consider TAGATCACGTGCGTAG, for which the “relative binding free energy” value is 0.12 kcal/mol.

For ATAAACACGTGGGGTT, the “relative binding free energy” value was -0.08 kcal/mol.

As for AGGAACACGTGGTTAT, the “relative binding free energy” value came to 0.07 kcal/mol.

With TCTATCACGTGGTGTA, the “relative binding free energy” value is -0.01 kcal/mol.

For GTTATCACGTGAGGCT, the “relative binding free energy” value amounted to 0.43 kcal/mol.

On to GGAGGCACGTGAGAGG, for which the “relative binding free energy” value amounted to 0.19 kcal/mol.

Take GTTGCCACGTGTGTGC: the “relative binding free energy” value is -0.03 kcal/mol.

For the sequence CAAGGCACGTGGGAAG, the “relative binding free energy” value is -0.05 kcal/mol.

ACGTTCACGTGTATAG: the “relative binding free energy” value came to 0.29 kcal/mol.

Turning to GCGCGCACGTGGGTTT, the “relative binding free energy” value was -0.15 kcal/mol.

As to AAGCGCACGTGGGTAG, the “relative binding free energy” value is -0.21 kcal/mol.

As to AGATACACGTGTTTGA, the “relative binding free energy” value is 0.09 kcal/mol.

With TGTGTCACGTGTCCAG, the “relative binding free energy” value was 0.06 kcal/mol.

In the case of TAGAACACGTGGGAGT, the “relative binding free energy” value worked out at 0.04 kcal/mol.

In the case of GTTTTCACGTGAGGTA, the “relative binding free energy” value was determined as 0.35 kcal/mol.

Consider GATGTCACGTGATATA, for which the “relative binding free energy” value was 0.36 kcal/mol.

Regarding AGGGGCACGTGTCCGG, the “relative binding free energy” value was -0.1 kcal/mol.

Consider TATTTCACGTGAATGG, for which the “relative binding free energy” value amounted to 0.41 kcal/mol.

For the sequence GTTAGCACGTGGCGTT, the “relative binding free energy” value is -0.1 kcal/mol.

For ATTTGCACGTGCGTAG, the “relative binding free energy” value amounted to 0.05 kcal/mol.

On to TTACGCACGTGGAATG, for which the “relative binding free energy” value is -0.02 kcal/mol.

On to GATGTCACGTGGGTGC, for which the “relative binding free energy” value turned out to be 0.03 kcal/mol.

Take CTTTTCACGTGCCGGG: the “relative binding free energy” value turned out to be 0.46 kcal/mol.

Turning to GGGGTCACGTGAGGGA, the “relative binding free energy” value is 0.39 kcal/mol.

As for TGAGGCACGTGGTGTT, the “relative binding free energy” value is -0.15 kcal/mol.

Turning to CTATGCACGTGGTTTT, the “relative binding free energy” value is -0.16 kcal/mol.

For CTTATCACGTGTGTAG, the “relative binding free energy” value is -0.06 kcal/mol.

TGTTGCACGTGAGGTA: the “relative binding free energy” value was 0.12 kcal/mol.

Regarding ATGATCACGTGGGGCG, the “relative binding free energy” value was -0.04 kcal/mol.

As to AAATGCACGTGTGGAA, the “relative binding free energy” value is 0.14 kcal/mol.
